# Laboratory results as given in PubChem BioAssay (NCATS).
# This list was built around the results that the source calls inconclusive (neither active nor inactive); the mix of calls is not that of the screen. For some assays here: No potency is given beside an inconclusive call; the fits are too rough. For some assays here: A note “side channel” means that the fit belongs to a control or component signal, not to the main read-out. Activity calls are given as the source filed them. Unless noted, calls follow the shape of the dose curve; as a rule, active = well fitted curve in the direction sought with a large enough effect; inconclusive = small, poorly fitted or top-dose-only effect, or another doubt; inactive = no such curve, though single readings can be large; an effect the other way counts as inactive or inconclusive.
# Key:
# [1] = NS1 protein of Zika virus - qHTS assay to identify small molecule inhibitors in human HEK 293 cells (AID 1347053); also: nearly all actives have a fitted effect of over 55% in size; also: potency is read from the fitted curve at half-maximal effect;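 as to activity change, negative = inhibition: plate controls were infected untreated cells for no effect and uninfected cells for full effect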
# In short: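 HEK 293 cells, seeded 20 h at 37 C, were pretreated with compound 1 h, then infected with ZIKV MR766 (MOI = 0.5) for 24 h. NS1 was read by TR-FRET with two anti-NS1 antibodies, normalized to uninfected and infected wells.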
# [2] = biological target: Phospholipid hydroperoxide glutathione peroxidase GPX4 (Homo sapiens) (UniProt P36969); experiment: Primary qHTS Assay for Inhibitors of Recombinant Selenoprotein Glutathione Peroxidase 4 (GPX4) (AID 1845192); conditions: activity change, negative = inhibition: at 50 µM (top of the series) unless noted; also: nearly all actives have a fitted effect of over 65% in size; also: potency is read from the fitted curve at half-maximal effect; as to activity change, negative = inhibition: % is scaled to controls: 0 for no effect and ±100 for the full control effect
# Chain of UniProt P36969 (P36969 whole entry, looked up): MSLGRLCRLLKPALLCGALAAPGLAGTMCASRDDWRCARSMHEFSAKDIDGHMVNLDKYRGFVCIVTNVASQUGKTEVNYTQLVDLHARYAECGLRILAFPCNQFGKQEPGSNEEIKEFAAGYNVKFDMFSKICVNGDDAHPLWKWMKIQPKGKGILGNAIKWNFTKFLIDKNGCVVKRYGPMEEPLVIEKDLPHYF
# In short: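 NADPH consumption, followed by fluorescence at 340/450 nm between 0 and 15 min, reports GPX4 activity via coupled glutathione reductase (100 nM). Enzyme 200 nM was pre-exposed to compound 30 min; 0.5 mM cumene hydroperoxide and 1 mM GSH served as substrates.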
# [3] = qHTS for Inhibitors of Plasmodium falciparum (HB3) proliferation (AID 504318); also: nearly all actives have a fitted effect of over 60% in size; also: potency is read from the fitted curve at half-maximal effect;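 as to activity change, negative = inhibition: 0% = DMSO vehicle and -100% = artemisinin control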; conditions: P. falciparum HB3 in erythrocytes, SYBR Green DNA, 72 h; activity change, negative = inhibition: at 7.21 µM (top of the series)
# In short: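 Erythrocytes infected with P. falciparum line (0.3% parasitemia, 2.5% hematocrit final) incubated with compounds 72 h at 37 °C, 5% CO2; SYBR Green lysis buffer added, fluorescence read next day. Normalized to 0.29 uM artemisinin and DMSO.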
# [4] = Stat Signaling Pathway (AID 446; active = well fitted curve in either direction with a large enough effect, not every such curve was filed as active; inconclusive = small, poorly fitted or top-dose-only effect, or another doubt;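 also: ME-180 cervical cancer cells given 40 pM IL-6 alongside compound; SIE-controlled beta-lactamase reporter measured as 460/530 nm FRET emission ratio; top concentration of the series differs between compounds; % is scaled to controls: 0 for no effect and ±100 for the full control effect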); conditions: ME-180 SIE beta-lactamase reporter, IL-6 stimulated, 5 h; at 38 µM (top of the series)
# In short: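 ME-180 SIE-bla cells; overnight plating; cpd + IL-6 40 pM, 5 h, 37 C; LiveBLAzer 2.5 h RT; 460/530 nm emission ratio. Normalized to 300 pM IL-6 and 125 nM JAK inhibitor controls.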
# [5] = biological target: Mitogen-activated protein kinase 10 (Mus musculus) (UniProt Q61831); experiment: JNK3 AlphaScreen Assay (AID 530; active = well fitted curve in either direction with a large enough effect, not every such curve was filed as active; inconclusive = small, poorly fitted or top-dose-only effect, or another doubt;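 also: kinase came from lysate of stimulated human HepG2 cells; signal reports phosphorylation of biotinylated GST-cJun 1-79 at Ser73 with 10 µM ATP; potency is read from the fitted curve at half-maximal effect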); conditions: JNK3 lysate, c-Jun phosphorylation; activity change, negative = inhibition: at 57.1 µM (top of the series)
# In short: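 Compound titrations were preincubated 15 minutes at room temperature with substrate, antibody and pre-activated JNK3-containing HepG2 lysate. Reactions were started with 10 uM ATP and stopped with EDTA-containing bead buffer for AlphaScreen detection.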
# [6] = qHTS Assay for Identification of Small Molecule Agonists for Thrombopoietin (TPO) Signaling Pathway (AID 917); also: potency is read from the fitted curve at half-maximal effect
# In short: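 IL-3-dependent murine pro-B Ba/F3 cells, stably transfected with human TPO receptor and GpIIb-promoter luciferase, are incubated 24 hrs at 37 C with test compound and 26 pM TPO; luciferase signal is read after 10 min at room temperature.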
# [7] = biological target: Endonuclease 4 (Escherichia coli (strain K12)) (UniProt P0A6C1); experiment: Counterscreen for APE1 Inhibitors: qHTS Validation Assay for Inhibitors of Endonuclease IV (AID 1708); also: potency is read from the fitted curve at half-maximal effect
# In short: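 qHTS concentration-response format; LOPAC1280 tested under APE1-screen conditions. 2 nM enzyme, 15 min compound preincubation at RT, then 50 nM TAMRA/BHQ-2 abasic substrate; kinetic fluorescence read, three reads at 60 s intervals.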
# [8] = qHTS for differential inhibitors of proliferation of Plasmodium falciparum line D10 (AID 1877);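 also: parasites grown with compound for 72 h before DNA staining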; also: potency is read from the fitted curve at half-maximal effect;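 as to activity change, negative = inhibition: plate controls were vehicle wells for no effect and reference inhibitor wells for full effect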
# [9] = biological target: ATPase family AAA domain-containing protein 5 (Homo sapiens) (UniProt Q96QE3); experiment: Validation screen for small molecules that inhibit ELG1-dependent DNA repair in human embryonic kidney (HEK293T) cells expressing luciferase-tagged ELG1 (AID 493107); conditions: HEK293T ELG1-luciferase level, luminescence, 5-fluorouridine co-treatment, 16 h; activity change, negative = decrease: at 46.1 µM (top of the series); also: potency is read from the fitted curve at half-maximal effect; nearly all actives have a fitted effect of over 70% in size
# In short: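 HEK293T cells expressing luciferase-tagged ELG1, 2,000 per well, treated with 5-fluorouridine plus compound for 16 h at 37 C. ONE-Glo luminescence after 30 min at room temperature reports ELG1 reporter level.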
# [10] = biological target: Ubiquitin carboxyl-terminal hydrolase 1 (Homo sapiens) (UniProt O94782); experiment: Inhibitors of USP1/UAF1: Pilot qHTS (AID 504865); also: potency is read from the fitted curve at half-maximal effect;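 also: rhodamine fluorescence freed from ubiquitin-rhodamine substrate followed over time; nearly all actives have a fitted effect of over 35% in size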; as to activity change, negative = inhibition: top concentration of the series differs between compounds; % is scaled to controls: 0 for no effect and ±100 for the full control effect
# Chain of UniProt O94782 (O94782 whole entry, looked up): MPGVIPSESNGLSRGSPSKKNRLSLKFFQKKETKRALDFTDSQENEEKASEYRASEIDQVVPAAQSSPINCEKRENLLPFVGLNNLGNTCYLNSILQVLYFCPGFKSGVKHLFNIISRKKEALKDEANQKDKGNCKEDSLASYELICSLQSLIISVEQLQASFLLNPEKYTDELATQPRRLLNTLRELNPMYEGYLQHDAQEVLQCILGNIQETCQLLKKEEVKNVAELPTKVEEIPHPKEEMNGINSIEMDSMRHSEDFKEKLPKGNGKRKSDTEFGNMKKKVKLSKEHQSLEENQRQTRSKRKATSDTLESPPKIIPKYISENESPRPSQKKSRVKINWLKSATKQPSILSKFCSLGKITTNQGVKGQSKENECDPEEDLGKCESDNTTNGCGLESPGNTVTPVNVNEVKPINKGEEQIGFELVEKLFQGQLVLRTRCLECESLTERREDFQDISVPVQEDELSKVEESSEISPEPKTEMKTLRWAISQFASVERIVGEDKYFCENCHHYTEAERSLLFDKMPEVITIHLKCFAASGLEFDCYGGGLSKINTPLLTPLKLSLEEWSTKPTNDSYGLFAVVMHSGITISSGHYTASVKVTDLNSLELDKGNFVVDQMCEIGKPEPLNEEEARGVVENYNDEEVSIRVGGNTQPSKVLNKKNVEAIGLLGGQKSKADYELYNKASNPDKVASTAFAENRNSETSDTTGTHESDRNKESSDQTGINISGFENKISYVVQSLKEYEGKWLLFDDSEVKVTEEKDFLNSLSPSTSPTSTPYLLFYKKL
# In short: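 Enzyme-free wells gave the negative control, while test wells held 1nM USP1/UAF1 preincubated with compound for 15 min at room temperature. Ub-Rho at 150nM final started the reaction, and fluorescence at 480/540 nm was recorded kinetically.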
# [11] = qHTS for Inhibitors of ATXN expression: Validation of Cytotoxic Assay (AID 588349); also: potency is read from the fitted curve at half-maximal effect
# In short: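 HEK293 cells treated with titrated compound for 72 hr at 37 degrees C; viability read as intracellular ATP by CellTiter Glo luminescence.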
# [12] = qHTS for Inhibitors of ATXN expression: Validation (AID 588378); also: % is scaled to controls: 0 for no effect and ±100 for the full control effect; nearly all actives have a fitted effect of over 75% in size
# In short: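 After a 2 h attachment and 24 h compound incubation, HEK293-ATXN2-FFLuc wells are read for fluorescence at 405 nm excitation/525 nm emission as a viability measure, then for Bright-Glo luminescence reflecting ATXN2 expression.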
# [13] = biological target: Tyrosine-protein phosphatase non-receptor type substrate 1 (Homo sapiens) + Leukocyte surface antigen CD47 (Homo sapiens) (UniProt P78324+Q08722); experiment: CD47-SIRPalpha protein protein interaction - LANCE assay qHTS validation (AID 1347057; active = well fitted curve in the direction sought with a large enough effect in the signal ratio, with a control signal flat, not every such curve was filed as active; inconclusive = small, poorly fitted or top-dose-only effect, or effect the other way, or a change in a side signal; inactive = no such curve, though single readings can be large or run the other way; the % refers to the signal ratio; also: potency is read from the fitted curve at half-maximal effect; as to activity change, negative = inhibition: 0% is about no effect)
# Chain of UniProt P78324 (P78324 whole entry, looked up): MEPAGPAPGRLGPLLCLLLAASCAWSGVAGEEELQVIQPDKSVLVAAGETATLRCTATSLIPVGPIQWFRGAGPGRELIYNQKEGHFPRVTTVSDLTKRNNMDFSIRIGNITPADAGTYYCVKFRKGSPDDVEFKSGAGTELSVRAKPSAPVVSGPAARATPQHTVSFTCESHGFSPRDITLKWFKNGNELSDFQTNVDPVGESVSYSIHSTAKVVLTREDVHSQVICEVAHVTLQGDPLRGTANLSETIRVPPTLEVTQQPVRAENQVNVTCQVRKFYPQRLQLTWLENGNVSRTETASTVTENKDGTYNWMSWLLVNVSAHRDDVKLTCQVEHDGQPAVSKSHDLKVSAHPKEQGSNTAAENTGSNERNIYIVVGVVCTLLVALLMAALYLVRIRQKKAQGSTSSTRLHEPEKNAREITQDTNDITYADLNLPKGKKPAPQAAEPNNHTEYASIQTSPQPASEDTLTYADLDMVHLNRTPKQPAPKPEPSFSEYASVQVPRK
# Chain of UniProt P78324 (Q08722 whole entry, looked up): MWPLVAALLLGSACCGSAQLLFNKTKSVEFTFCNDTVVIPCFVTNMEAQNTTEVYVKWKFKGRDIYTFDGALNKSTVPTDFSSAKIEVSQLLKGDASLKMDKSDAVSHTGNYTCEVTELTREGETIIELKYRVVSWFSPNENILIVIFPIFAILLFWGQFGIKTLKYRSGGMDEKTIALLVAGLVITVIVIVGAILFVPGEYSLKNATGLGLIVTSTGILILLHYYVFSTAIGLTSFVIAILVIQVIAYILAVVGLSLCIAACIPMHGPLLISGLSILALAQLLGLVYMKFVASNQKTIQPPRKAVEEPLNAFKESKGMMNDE
# In short: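 First, His-tagged CD47 and Eu-labelled anti-His antibody met the compound for 30 min; next, site-specifically biotinylated SIRPalpha was added for 30 min; finally streptavidin-APC was added before reading the TR-FRET ratio.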
# [14] = biological target: Calcium and integrin-binding protein 1 (Homo sapiens) (UniProt Q99828); experiment: Validation qHTS for Identification of Calcium Integrin Binding protein 1 (CIB1) Competitor (AID 1508618); also: potency is read from the fitted curve at half-maximal effect
# Chain of UniProt Q99828 (Q99828 whole entry, looked up): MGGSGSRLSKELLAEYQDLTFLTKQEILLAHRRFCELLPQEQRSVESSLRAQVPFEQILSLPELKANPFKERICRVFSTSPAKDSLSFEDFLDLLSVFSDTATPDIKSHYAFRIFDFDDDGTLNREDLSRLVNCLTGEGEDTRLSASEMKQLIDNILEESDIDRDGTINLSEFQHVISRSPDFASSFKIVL
# In short: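 CIB1-GST (1 uM final) in 5 mM HEPES pH 7.4, 125 mM NaCl, 5 mM CaCl2, 0.01% Tween20 was preincubated 15 min at room temperature with compound (up to 114 uM), then FITC-alphaIIb peptide (100 nM) added for 15 min; fluorescence polarization read.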
# Papain (Carica papaya) = Papain (Carica papaya) (UniProt P00784); experiment: Primary qHTS assay for inhibitors of the protease papain (AID 1645873);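 also: papain turnover of Z-FR-AMC read as the AMC fluorescence gain over 10 min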; also: potency is read from the fitted curve at half-maximal effect; as to activity change, negative = inhibition: % is scaled to controls: 0 for no effect and ±100 for the full control effect
# Chain of UniProt P00784 (P00784 whole entry, looked up): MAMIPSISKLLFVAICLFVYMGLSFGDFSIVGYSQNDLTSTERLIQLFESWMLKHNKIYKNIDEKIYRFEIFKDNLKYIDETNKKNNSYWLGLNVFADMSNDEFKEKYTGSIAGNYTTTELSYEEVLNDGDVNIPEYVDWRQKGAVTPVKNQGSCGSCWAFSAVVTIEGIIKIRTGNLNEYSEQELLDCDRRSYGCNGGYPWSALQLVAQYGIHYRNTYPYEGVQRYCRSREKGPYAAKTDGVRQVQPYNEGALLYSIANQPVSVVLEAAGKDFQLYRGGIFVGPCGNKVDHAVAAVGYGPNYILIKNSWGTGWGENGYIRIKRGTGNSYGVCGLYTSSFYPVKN
# [15] = Quantitative high throughput screen for delayed death inhibitors of the malarial parasite plastid, 96 hour incubation (AID 488745); also: nearly all actives have a fitted effect of over 70% in size; also: potency is read from the fitted curve at half-maximal effect
# In short: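 Luciferase-expressing P. falciparum in erythrocytes (2% hematocrit, 0.1% parasitemia) incubated with compound for 96 h at 37 C, 5% CO2, in RPMI 1640 with 0.5% Albumax. Growth inhibition read as decreased luminescence.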
# [16] = biological target: Thioredoxin reductase 1, cytoplasmic (Rattus norvegicus) (UniProt O89049); experiment: qHTS Assay for Inhibitors of Mammalian Selenoprotein Thioredoxin Reductase 1 (TrxR1) (AID 488773); conditions: Potency: inhibition; also: nearly all actives have a fitted effect of over 40% in size; also: potency is read from the fitted curve at half-maximal effect
# Chain of UniProt O89049 (O89049 whole entry, looked up): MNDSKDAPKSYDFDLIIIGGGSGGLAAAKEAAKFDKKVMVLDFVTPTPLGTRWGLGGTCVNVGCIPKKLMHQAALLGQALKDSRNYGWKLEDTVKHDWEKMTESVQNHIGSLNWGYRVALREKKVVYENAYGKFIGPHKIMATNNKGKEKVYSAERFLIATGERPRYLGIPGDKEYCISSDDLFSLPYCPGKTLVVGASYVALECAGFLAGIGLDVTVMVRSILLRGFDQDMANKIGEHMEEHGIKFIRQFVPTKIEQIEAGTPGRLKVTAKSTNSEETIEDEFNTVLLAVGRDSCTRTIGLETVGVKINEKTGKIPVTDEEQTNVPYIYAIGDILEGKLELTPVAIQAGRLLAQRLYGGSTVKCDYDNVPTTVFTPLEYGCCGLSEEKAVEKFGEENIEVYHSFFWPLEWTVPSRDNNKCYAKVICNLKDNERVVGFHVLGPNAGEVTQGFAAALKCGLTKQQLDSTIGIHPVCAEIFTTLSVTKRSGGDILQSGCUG
# In short: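 Steps: enzyme (90 nM) plus NADPH (400 uM final), 5 min at ~22 deg C; compound added, 15 min; selenite (400 uM final) added; fluorescence followed for 8 min. Concentration-response curves derived from the normalized delta values.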
# [17] = biological target: Muscarinic acetylcholine receptor M1 (Rattus norvegicus) (UniProt P08482); experiment: qHTS Assay for Antagonists of Acetylcholine Muscarinic M1 Receptor: Measurement of IP-One Response (AID 944); also: nearly all actives have a fitted effect of over 75% in size; also: potency is read from the fitted curve at half-maximal effect
# Chain of UniProt P08482 (P08482 whole entry, looked up): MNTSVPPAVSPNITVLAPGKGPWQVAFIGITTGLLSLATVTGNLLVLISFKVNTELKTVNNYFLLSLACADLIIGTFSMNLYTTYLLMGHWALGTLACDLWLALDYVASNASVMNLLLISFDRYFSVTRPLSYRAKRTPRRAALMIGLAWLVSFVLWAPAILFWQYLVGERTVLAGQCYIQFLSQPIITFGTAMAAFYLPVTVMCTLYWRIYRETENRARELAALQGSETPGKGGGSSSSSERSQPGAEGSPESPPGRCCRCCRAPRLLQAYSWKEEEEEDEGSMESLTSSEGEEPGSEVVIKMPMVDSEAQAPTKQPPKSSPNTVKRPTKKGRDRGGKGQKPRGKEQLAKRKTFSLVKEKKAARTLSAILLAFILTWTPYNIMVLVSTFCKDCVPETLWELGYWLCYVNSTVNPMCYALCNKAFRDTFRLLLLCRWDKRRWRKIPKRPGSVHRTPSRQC
# [18] = biological target: Ferritin light chain (Equus caballus) (UniProt P02791); experiment: qHTS Validation Assay for Identification of Novel General Anesthetics (AID 2323); also: potency is read from the fitted curve at half-maximal effect
# Chain of UniProt P02791 (P02791 whole entry, looked up): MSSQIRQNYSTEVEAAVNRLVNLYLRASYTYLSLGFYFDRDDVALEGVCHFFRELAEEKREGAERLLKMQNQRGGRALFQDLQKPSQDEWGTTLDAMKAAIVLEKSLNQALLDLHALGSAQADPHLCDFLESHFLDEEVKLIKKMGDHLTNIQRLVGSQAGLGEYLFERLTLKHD
# In short: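 Normalized fluorescence response, scaled between free 1-AMA and 1-AMA/apoferritin complex, fitted to a four-parameter Hill equation for concentration-effect values. Binding mix: 10 uM horse-spleen apoferritin, 50% saturated 1-AMA in PBS; read 380/535 nm after 10 min.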
# [19] = biological target: Glutaminase kidney isoform, mitochondrial (Homo sapiens) (UniProt O94925); experiment: qHTS for Inhibitors of Glutaminase (GLS): LOPAC Validation (AID 624146); also: potency is read from the fitted curve at half-maximal effect; nearly all actives have a fitted effect of over 60% in size
# Chain of UniProt O94925 (O94925 whole entry, looked up, canonical isoform): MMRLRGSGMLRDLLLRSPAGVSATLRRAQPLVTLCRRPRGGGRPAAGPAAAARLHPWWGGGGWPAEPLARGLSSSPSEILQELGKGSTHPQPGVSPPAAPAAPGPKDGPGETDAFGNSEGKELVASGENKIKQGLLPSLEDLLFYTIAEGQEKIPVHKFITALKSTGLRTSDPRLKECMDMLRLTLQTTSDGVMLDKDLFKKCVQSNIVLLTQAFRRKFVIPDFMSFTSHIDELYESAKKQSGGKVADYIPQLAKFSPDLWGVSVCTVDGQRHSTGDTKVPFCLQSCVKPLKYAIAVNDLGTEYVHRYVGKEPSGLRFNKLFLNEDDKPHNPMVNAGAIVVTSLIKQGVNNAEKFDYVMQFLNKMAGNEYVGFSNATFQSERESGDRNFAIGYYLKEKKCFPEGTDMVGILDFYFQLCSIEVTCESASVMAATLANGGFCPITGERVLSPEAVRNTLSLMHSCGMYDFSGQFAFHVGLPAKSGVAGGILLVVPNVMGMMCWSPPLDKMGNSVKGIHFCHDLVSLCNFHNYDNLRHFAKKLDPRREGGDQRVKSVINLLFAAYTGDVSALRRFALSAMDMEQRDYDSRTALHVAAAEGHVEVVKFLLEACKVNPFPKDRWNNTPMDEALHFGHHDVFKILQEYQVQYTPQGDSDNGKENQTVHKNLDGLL
# In short: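 Human kidney-isoform GLS in 45 mM KH2PO4 pH 8.2, 0.02% Tween-20, with compound, started with 1mM L-Glutamine (added stock). Glutamate oxidase/HRP/Amplex red coupled fluorescence read at start and after 30 min at RT.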
# Tags tell the direction and shape of the fitted curve.
compound,measurement,setting,value
COc1ccc(C(=O)/C(Cc2cc(OC)c(OC)c(OC)c2)=C(\C(=O)O)c2ccc3c(c2)OCO3)cc1,Potency,[1],"inconclusive [inhibitor, single point]"
same,Potency,[2],inactive
CC(=O)Nc1ccc(S(=O)(=O)N2CCc3nc(COc4ccccc4)c4c(c3C2)CO[C@@H](C)C4)cc1,Potency,[3],"inconclusive [inhibitor, single point] and inactive"
O=C(O)C1=CC(=C(c2ccc(O)c(C(=O)O)c2)c2ccc(O)c(C(=O)O)c2)C=CC1=O,"activity, negative = inhibition",[4],inconclusive: -70.5% [inhibitor]
same,Potency,[5],"inconclusive [inhibitor, partial curve, poor fit]"
same,Potency,[6],"inconclusive [inhibitor, partial curve]"
same,Potency,[7],active: 0.708 µM
same,Potency,[8],"inconclusive [inhibitor, partial curve]"
same,Potency,[9],"inconclusive [inhibitor, single point]"
same,Potency,[10],active: 8.91 µM
same,Potency,[11],inactive
same,Potency,[12],inactive
same,Potency,[13],active: 11.7 µM
same,Potency,[14],"inconclusive [inhibitor, full curve]"
same,Potency,Papain (Carica papaya),active: 7.94 µM
same,Potency,[2],"inconclusive [inhibitor, single point]"
O=C1NC(=O)c2c1c(-c1ccccc1)cc1[nH]c3ccc(O)cc3c21,Potency,[1],"inconclusive [inhibitor, full curve, poor fit]"
same,Potency,[13],"inconclusive [side channel, falling, partial curve]"
Nc1ccc(-c2nc3ccc(-c4nc5ccc(N)cc5[nH]4)cc3[nH]2)cc1,Potency,[7],active: 22.4 µM
same,Potency,[15],active: 0.262 µM
same,Potency,[10],active: 50.1 µM
same,Potency,[13],"inconclusive [side channel, falling, partial curve]"
same,Potency,[14],"inconclusive [inhibitor, partial curve]"
same,Potency,Papain (Carica papaya),"inconclusive [inhibitor, partial curve]"
N[C@@H](CCC(=O)N[C@H](CSN=O)C(=O)NCC(=O)O)C(=O)O,Potency,[15],"inconclusive [activator, partial curve, poor fit]"
same,Potency,[10],inactive
same,Potency,[1],"inconclusive [inhibitor, single point]"
same,Potency,[14],"inconclusive [inhibitor, full curve]"
Nc1ccc2c3c(cccc13)C(=O)NC2=O,Potency,[13],"inconclusive [side channel, falling, partial curve]"
same,Potency,[14],active: 2.51 µM
same,Potency,Papain (Carica papaya),"inconclusive [inhibitor, single point]"
same,Potency,[2],inactive
NCC(O)(CS(=O)(=O)O)c1ccc(Cl)cc1 (configuration not stated),Potency,[8],inactive
same,Potency,[1],inactive
same,Potency,Papain (Carica papaya),inactive
Cn1c(=O)c(-c2c(Cl)cccc2Cl)cc2cnc(Nc3ccc(N4CCOCC4)cc3)nc21,Potency,[1],"inconclusive [inhibitor, full curve, poor fit]"
CCCCS(=N)(=O)CC[C@H](N)C(=O)O (some centres not stated),Potency,[9],"inconclusive [activator, partial curve, poor fit]"
same,Potency,[11],inactive
same,Potency,[1],inactive
O=C(O)c1cc2cc(F)ccc2[nH]1,"activity, negative = inhibition",[4],inconclusive: -69.4% [inhibitor]
same,Potency,[16],inactive
same,Potency,[11],inactive
same,Potency,[1],inactive
O=C(CS(=O)Cc1ccco1)NC/C=C\COc1cc(CN2CCCCC2)ccn1 (configuration not stated),Potency,[1],inactive
C[C@H]1CC2C3CCC4=CC(=O)C=C[C@]4(C)[C@@]3(Cl)[C@@H](O)C[C@]2(C)[C@@]1(O)C(=O)CO (some centres not stated),Potency,[11],inactive
same,Potency,[1],inactive
COc1cc(/C=C(\C#N)C(=O)c2ccc(O)c(O)c2)cc(I)c1O,"activity, negative = inhibition",[4],inconclusive: -36.4% [inhibitor]
same,Potency,[5],"inconclusive [inhibitor, single point]"
same,Potency,[17],"inconclusive [inhibitor, partial curve, poor fit]"
same,Potency,[8],"inconclusive [inhibitor, partial curve]"
same,Potency,[18],"inconclusive [inhibitor, partial curve]"
same,Potency,[15],inactive
same,Potency,[16],"inconclusive [inhibitor, single point]"
same,Potency,[11],"inconclusive [cytotoxic, partial curve, poor fit]"
same,Potency,[19],"inconclusive [inhibitor, full curve, poor fit]"
same,Potency,[13],inactive
same,Potency,Papain (Carica papaya),"inconclusive [inhibitor, single point]"
O=c1cc(-c2ccccc2)oc2c(O)c(O)ccc12,Potency,[10],"inconclusive [inhibitor, partial curve, poor fit]"
same,Potency,[13],"inconclusive [side channel, falling, single point]"
C=CC[C@H](N)C(=O)O,Potency,[6],"inconclusive [activator, single point]"
same,Potency,[17],inactive
same,Potency,[1],inactive
